# The list shows a part of the results.
# B1: GSL-I-B4 (Griffonia simplicifolia) (protein)
# chain: NFWSDVEDSIIFQGDANTTAGTLQLCKTNQYGTPLQWSAGRALYSDPVQLWDNKTESVASFYTEFTFFLKITGNGPADGLAFFLAPPDSDVKDAGEYLGLFNKSTATQPSKNQVVAVEFDTWTNPNFPEPSYRHIGINVNSIVSVATKRWEDSDIFSGKIATARISYDGSAEILTVVLSYPDGSDYILSHSVDMRQNLPESVRVGISASTGNNQFLTVYILSWRFSSNLQSTSVKAAMEPEITRTVV
# Assays:
# Test in all cases: glycan array binding signal (z-score within array); higher = stronger binding
# Conditions in all cases: glycan notation: IUPAC condensed, linker removed
# [1] = molecular target: GlcNAc(b1-2)[GlcNAc(b1-4)]Man(a1-3)[GlcNAc(b1-4)][GlcNAc(b1-2)[GlcNAc(b1-6)]Man(a1-6)]Man(b1-4)GlcNAc(b1-4)GlcNAc
# Procedure, shortened: (§1)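 The Consortium for Functional Glycomics database supplied 3228 glycan arrays, of which those lacking an available protein sequence were dropped. The binding signal, a within-array Z-score, was averaged across arrays of the same protein sequence and across linkers. Negative scores can be read as non-binding.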
# [2] = molecular target: GlcNAc(b1-2)[GlcNAc(b1-4)]Man(a1-3)[GlcNAc(b1-4)][GlcNAc(b1-2)[GlcNAc(b1-6)]Man(a1-6)]Man(b1-4)GlcNAc(b1-4)[Fuc(a1-6)]GlcNAc
# Procedure, shortened: as §1
# [3] = molecular target: GlcNAc(b1-2)[GlcNAc(b1-6)]Man(a1-6)[GlcNAc(b1-2)Man(a1-3)]Man(b1-4)GlcNAc(b1-4)GlcNAc
# Procedure, shortened: as §1
# [4] = molecular target: GlcNAc(b1-2)[GlcNAc(b1-6)]Man(a1-6)[GlcNAc(b1-2)Man(a1-3)]Man(b1-4)GlcNAc(b1-4)[Fuc(a1-6)]GlcNAc
# Procedure, shortened: as §1
# [5] = molecular target: GlcNAc(b1-2)[GlcNAc(b1-6)]Man(a1-6)[GlcNAc(b1-4)][GlcNAc(b1-2)Man(a1-3)]Man(b1-4)GlcNAc(b1-4)GlcNAc
# Procedure, shortened: as §1
# GlcNAc(b1-3)Fuc = molecular target: GlcNAc(b1-3)Fuc
# Procedure, shortened: as §1
# GlcNAc(b1-3)Gal = molecular target: GlcNAc(b1-3)Gal
# Procedure, shortened: as §1
# [6] = molecular target: GlcNAc(b1-3)Gal(b1-3)GalNAc
# Procedure, shortened: as §1
# GlcNAc(b1-3)Gal(b1-4)Glc = molecular target: GlcNAc(b1-3)Gal(b1-4)Glc
# Procedure, shortened: as §1
# [7] = molecular target: GlcNAc(b1-3)Gal(b1-4)GlcNAc
# Procedure, shortened: as §1
# [8] = molecular target: GlcNAc(b1-3)Gal(b1-4)GlcNAc(b1-2)Man(a1-3)[GlcNAc(b1-3)Gal(b1-4)GlcNAc(b1-2)Man(a1-6)]Man(b1-4)GlcNAc(b1-4)GlcNAc
# Procedure, shortened: as §1
# [9] = molecular target: GlcNAc(b1-3)Gal(b1-4)GlcNAc(b1-2)Man(a1-3)[GlcNAc(b1-3)Gal(b1-4)GlcNAc(b1-2)Man(a1-6)]Man(b1-4)GlcNAc(b1-4)[Fuc(a1-6)]GlcNAc
# Procedure, shortened: as §1
# [10] = molecular target: GlcNAc(b1-3)Gal(b1-4)GlcNAc(b1-2)[GlcNAc(b1-3)Gal(b1-4)GlcNAc(b1-6)]Man(a1-6)[GlcNAc(b1-3)Gal(b1-4)GlcNAc(b1-2)Man(a1-3)]Man(b1-4)GlcNAc(b1-4)GlcNAc
# Procedure, shortened: as §1
# [11] = molecular target: GlcNAc(b1-3)Gal(b1-4)GlcNAc(b1-3)Gal(b1-4)GlcNAc
# Procedure, shortened: as §1
# [12] = molecular target: GlcNAc(b1-3)Gal(b1-4)GlcNAc(b1-3)Gal(b1-4)GlcNAc(b1-2)Man(a1-3)[GlcNAc(b1-3)Gal(b1-4)GlcNAc(b1-3)Gal(b1-4)GlcNAc(b1-2)Man(a1-6)]Man(b1-4)GlcNAc(b1-4)GlcNAc
# Procedure, shortened: as §1
# [13] = molecular target: GlcNAc(b1-3)Gal(b1-4)GlcNAc(b1-3)Gal(b1-4)GlcNAc(b1-2)Man(a1-3)[GlcNAc(b1-3)Gal(b1-4)GlcNAc(b1-3)Gal(b1-4)GlcNAc(b1-2)Man(a1-6)]Man(b1-4)GlcNAc(b1-4)[Fuc(a1-6)]GlcNAc
# Procedure, shortened: as §1
# [14] = molecular target: GlcNAc(b1-3)Gal(b1-4)GlcNAc(b1-3)Gal(b1-4)GlcNAc(b1-2)[GlcNAc(b1-3)Gal(b1-4)GlcNAc(b1-3)Gal(b1-4)GlcNAc(b1-6)]Man(a1-6)[GlcNAc(b1-3)Gal(b1-4)GlcNAc(b1-3)Gal(b1-4)GlcNAc(b1-2)Man(a1-3)]Man(b1-4)GlcNAc(b1-4)[Fuc(a1-6)]GlcNAc
# Procedure, shortened: as §1
# [15] = molecular target: GlcNAc(b1-3)Gal(b1-4)GlcNAc(b1-3)Gal(b1-4)GlcNAc(b1-3)Gal(b1-4)GlcNAc(b1-2)Man(a1-3)[GlcNAc(b1-3)Gal(b1-4)GlcNAc(b1-3)Gal(b1-4)GlcNAc(b1-3)Gal(b1-4)GlcNAc(b1-2)Man(a1-6)]Man(b1-4)GlcNAc(b1-4)GlcNAc
# Procedure, shortened: as §1
# [16] = molecular target: GlcNAc(b1-3)Gal(b1-4)GlcNAc(b1-3)Gal(b1-4)GlcNAc(b1-3)Gal(b1-4)GlcNAc(b1-2)Man(a1-3)[GlcNAc(b1-3)Gal(b1-4)GlcNAc(b1-3)Gal(b1-4)GlcNAc(b1-3)Gal(b1-4)GlcNAc(b1-2)Man(a1-6)]Man(b1-4)GlcNAc(b1-4)[Fuc(a1-6)]GlcNAc
# Procedure, shortened: as §1
# [17] = molecular target: GlcNAc(b1-3)Gal(b1-4)GlcNAc(b1-3)Gal(b1-4)GlcNAc(b1-3)Gal(b1-4)GlcNAc(b1-2)[GlcNAc(b1-3)Gal(b1-4)GlcNAc(b1-3)Gal(b1-4)GlcNAc(b1-3)Gal(b1-4)GlcNAc(b1-6)]Man(a1-6)[GlcNAc(b1-3)Gal(b1-4)GlcNAc(b1-3)Gal(b1-4)GlcNAc(b1-3)Gal(b1-4)GlcNAc(b1-2)Man(a1-3)]Man(b1-4)GlcNAc(b1-4)[Fuc(a1-6)]GlcNAc
# Procedure, shortened: as §1
# [18] = molecular target: GlcNAc(b1-3)Gal(b1-4)GlcNAc(b1-3)Gal(b1-4)GlcNAc(b1-3)Gal(b1-4)GlcNAc(b1-3)Gal(b1-4)GlcNAc(b1-2)Man(a1-3)[GlcNAc(b1-3)Gal(b1-4)GlcNAc(b1-3)Gal(b1-4)GlcNAc(b1-3)Gal(b1-4)GlcNAc(b1-3)Gal(b1-4)GlcNAc(b1-2)Man(a1-6)]Man(b1-4)GlcNAc(b1-4)GlcNAc
# Procedure, shortened: as §1
# [19] = molecular target: GlcNAc(b1-3)Gal(b1-4)GlcNAc(b1-3)Gal(b1-4)GlcNAc(b1-3)Gal(b1-4)GlcNAc(b1-3)Gal(b1-4)GlcNAc(b1-2)Man(a1-3)[GlcNAc(b1-3)Gal(b1-4)GlcNAc(b1-3)Gal(b1-4)GlcNAc(b1-3)Gal(b1-4)GlcNAc(b1-3)Gal(b1-4)GlcNAc(b1-2)Man(a1-6)]Man(b1-4)GlcNAc(b1-4)[Fuc(a1-6)]GlcNAc
# Procedure, shortened: as §1
# [20] = molecular target: GlcNAc(b1-3)Gal(b1-4)GlcNAc(b1-3)Gal(b1-4)GlcNAc(b1-3)Gal(b1-4)GlcNAc(b1-3)Gal(b1-4)GlcNAc(b1-2)[GlcNAc(b1-3)Gal(b1-4)GlcNAc(b1-3)Gal(b1-4)GlcNAc(b1-3)Gal(b1-4)GlcNAc(b1-3)Gal(b1-4)GlcNAc(b1-6)]Man(a1-6)[GlcNAc(b1-3)Gal(b1-4)GlcNAc(b1-3)Gal(b1-4)GlcNAc(b1-3)Gal(b1-4)GlcNAc(b1-3)Gal(b1-4)GlcNAc(b1-2)Man(a1-3)]Man(b1-4)GlcNAc(b1-4)[Fuc(a1-6)]GlcNAc
# Procedure, shortened: as §1
# [21] = molecular target: GlcNAc(b1-3)Gal(b1-4)GlcNAc(b1-3)Gal(b1-4)GlcNAc(b1-3)GalNAc
# Procedure, shortened: as §1
# [22] = molecular target: GlcNAc(b1-3)Gal(b1-4)GlcNAc(b1-3)GalNAc
# Procedure, shortened: as §1
# [23] = molecular target: GlcNAc(b1-3)Gal(b1-4)GlcNAc(b1-3)[GlcNAc(b1-3)Gal(b1-4)GlcNAc(b1-3)]GalNAc
# Procedure, shortened: as §1
# [24] = molecular target: GlcNAc(b1-3)Gal(b1-4)GlcNAc(b1-6)[Gal(b1-3)]GalNAc
# Procedure, shortened: as §1
# [25] = molecular target: GlcNAc(b1-3)Gal(b1-4)GlcNAc(b1-6)[GlcNAc(b1-3)Gal(b1-3)]GalNAc
# Procedure, shortened: as §1
# [26] = molecular target: GlcNAc(b1-3)Gal(b1-4)GlcNAc(b1-6)[GlcNAc(b1-3)]Gal(b1-4)GlcNAc
# Procedure, shortened: as §1
# GlcNAc(b1-3)GalNAc = molecular target: GlcNAc(b1-3)GalNAc
# Procedure, shortened: as §1
# GlcNAc(b1-3)Man = molecular target: GlcNAc(b1-3)Man
# Procedure, shortened: as §1
# [27] = molecular target: GlcNAc(b1-3)[GlcNAc(b1-4)][GlcNAc(b1-6)]GlcNAc
# Procedure, shortened: as §1
# [28] = molecular target: GlcNAc(b1-3)[GlcNAc(b1-6)]Gal(b1-4)GlcNAc
# Procedure, shortened: as §1
# [29] = molecular target: GlcNAc(b1-3)[GlcNAc(b1-6)]GalNAc
# Procedure, shortened: as §1
# [30] = molecular target: GlcNAc(b1-4)Gal(b1-4)GlcNAc
# Procedure, shortened: as §1
# GlcNAc(b1-4)GlcNAc = molecular target: GlcNAc(b1-4)GlcNAc
# Procedure, shortened: as §1
# [31] = molecular target: GlcNAc(b1-4)GlcNAc(b1-4)GlcNAc
# Procedure, shortened: as §1
# [32] = molecular target: GlcNAc(b1-4)GlcNAc(b1-4)GlcNAc(b1-4)GlcNAc(b1-4)GlcNAc
# Procedure, shortened: as §1
binder,measurement,setting,value
B1,glycan array binding signal (z-score),[1],-0.089
same,glycan array binding signal (z-score),[2],-0.062
same,glycan array binding signal (z-score),[3],-0.168
same,glycan array binding signal (z-score),[4],-0.126
same,glycan array binding signal (z-score),[5],-0.218
same,glycan array binding signal (z-score),GlcNAc(b1-3)Fuc,-0.142
same,glycan array binding signal (z-score),GlcNAc(b1-3)Gal,-0.158
same,glycan array binding signal (z-score),[6],-0.143
same,glycan array binding signal (z-score),GlcNAc(b1-3)Gal(b1-4)Glc,-0.18
same,glycan array binding signal (z-score),[7],-0.186
same,glycan array binding signal (z-score),[8],-0.09
same,glycan array binding signal (z-score),[9],-0.123
same,glycan array binding signal (z-score),[10],0.075
same,glycan array binding signal (z-score),[11],-0.172
same,glycan array binding signal (z-score),[12],0.066
same,glycan array binding signal (z-score),[13],0.013
same,glycan array binding signal (z-score),[14],0.099
same,glycan array binding signal (z-score),[15],0
same,glycan array binding signal (z-score),[16],-0.006
same,glycan array binding signal (z-score),[17],0.099
same,glycan array binding signal (z-score),[18],0.145
same,glycan array binding signal (z-score),[19],0.112
same,glycan array binding signal (z-score),[20],0.207
same,glycan array binding signal (z-score),[21],-0.168
same,glycan array binding signal (z-score),[22],-0.208
same,glycan array binding signal (z-score),[23],-0.174
same,glycan array binding signal (z-score),[24],-0.161
same,glycan array binding signal (z-score),[25],-0.149
same,glycan array binding signal (z-score),[26],-0.152
same,glycan array binding signal (z-score),GlcNAc(b1-3)GalNAc,-0.17
same,glycan array binding signal (z-score),GlcNAc(b1-3)Man,-0.141
same,glycan array binding signal (z-score),[27],-0.144
same,glycan array binding signal (z-score),[28],-0.226
same,glycan array binding signal (z-score),[29],-0.161
same,glycan array binding signal (z-score),[30],-0.208
same,glycan array binding signal (z-score),GlcNAc(b1-4)GlcNAc,-0.066
same,glycan array binding signal (z-score),[31],0.033
same,glycan array binding signal (z-score),[32],-0.032

# — the supplement of paper PMC8728848
